Hit rate of the full screen: of about 310,000 compounds, about 2,200 (0.71%) showed an effect of 50% or more. Effects have a minus sign here. This is one part of the list.
Target: human ether-à-go-go-related gene (hERG) potassium channel (human, UniProt Q12809)
Assay: primary screen, population patch clamp on CHO cells stably expressing hERG

Chain of human ether-à-go-go-related gene (hERG) potassium channel (Q12809 whole entry, looked up): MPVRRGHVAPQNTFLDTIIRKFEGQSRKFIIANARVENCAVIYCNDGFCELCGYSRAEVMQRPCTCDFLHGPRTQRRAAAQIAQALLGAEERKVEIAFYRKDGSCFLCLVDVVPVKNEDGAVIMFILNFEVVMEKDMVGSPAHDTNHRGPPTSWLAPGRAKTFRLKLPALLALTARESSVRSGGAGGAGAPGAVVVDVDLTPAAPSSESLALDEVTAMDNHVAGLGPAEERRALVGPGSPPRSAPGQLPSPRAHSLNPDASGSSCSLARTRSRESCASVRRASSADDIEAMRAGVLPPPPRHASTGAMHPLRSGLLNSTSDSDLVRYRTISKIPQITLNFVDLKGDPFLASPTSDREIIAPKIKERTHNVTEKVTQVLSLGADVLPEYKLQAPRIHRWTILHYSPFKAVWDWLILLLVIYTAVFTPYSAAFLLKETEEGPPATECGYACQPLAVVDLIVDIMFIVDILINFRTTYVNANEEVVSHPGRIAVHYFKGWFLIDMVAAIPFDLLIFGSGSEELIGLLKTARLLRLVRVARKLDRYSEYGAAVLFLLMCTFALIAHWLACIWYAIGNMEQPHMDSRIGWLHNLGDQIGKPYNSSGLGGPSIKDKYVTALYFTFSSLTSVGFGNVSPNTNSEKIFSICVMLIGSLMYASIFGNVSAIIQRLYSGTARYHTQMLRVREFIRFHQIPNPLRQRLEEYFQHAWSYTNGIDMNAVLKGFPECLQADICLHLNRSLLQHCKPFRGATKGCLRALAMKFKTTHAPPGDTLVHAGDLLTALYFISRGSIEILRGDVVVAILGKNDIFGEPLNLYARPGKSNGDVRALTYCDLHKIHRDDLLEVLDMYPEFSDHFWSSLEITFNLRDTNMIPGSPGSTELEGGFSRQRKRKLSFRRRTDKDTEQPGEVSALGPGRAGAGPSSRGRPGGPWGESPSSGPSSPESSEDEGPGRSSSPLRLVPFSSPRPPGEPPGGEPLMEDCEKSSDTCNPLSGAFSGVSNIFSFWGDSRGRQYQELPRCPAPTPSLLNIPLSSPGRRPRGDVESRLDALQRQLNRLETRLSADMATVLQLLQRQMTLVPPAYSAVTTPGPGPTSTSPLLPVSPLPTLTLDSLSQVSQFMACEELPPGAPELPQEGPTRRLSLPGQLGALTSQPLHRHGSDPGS

Row | Compound | hERG current change (%, negative = inhibition) at 1uM
1 | COc1cccc(NC(=O)c2cc(OC)c(OC)c(OC)c2Br)c1 | 12.2%
2 | N#Cc1nc(-c2ccco2)oc1NCCCN1CCOCC1 | 1.69%
3 | CCN(Cc1ccccc1)C(=O)CN1C(=O)COc2ccc(S(=O)(=O)NC3CCCC3)cc21 | -6.24%
4 | NC(=O)COc1ccc(C2c3c(oc4ccccc4c3=O)C(=O)N2CC2CCCO2)cc1 (stereo not shown) | -5.51%
5 | COc1ccc(/C=C2\SC(=S)N(CC(=O)NNC(=O)c3ccncc3)C2=O)cc1 | 11%
6 | CC1=C(/C=C/C(=O)O)C(C)(C)CCC1 | 13.7%
7 | COc1ccc(-c2nc(C)c(C(C)=O)n2O)cc1[N+](=O)[O-] | 10.5%
8 | COCCN1C(=O)N[C@@H](c2ccc(Br)cc2)C(C(=O)OC)=C1C | -19.2%
9 | [O-]/[N+](=C/c1ccc(F)cc1)c1ccccc1 | 6.23%
10 | CCOC(=O)c1c(C)[nH]c(C(=O)OCC(=O)N(C)c2c(N)n(Cc3ccccc3)c(=O)[nH]c2=O)c1C | 8%
11 | COc1ccccc1NC(=O)CSc1nnc(-c2ccoc2C)n1C | 11.4%
12 | CCOc1ccccc1N1CCN(c2ncnc3scc(-c4ccc(OC)cc4)c23)CC1 | 8.7%
13 | CSc1nc2ccccc2n1CC(=O)N1CCCCC1 | 2.94%
14 | CCC(NS(=O)(=O)c1ccc2c(c1)NC(=O)C(C)C(=O)N2)c1cccs1 (stereo not shown) | 10.6%
15 | Cc1ccc(NC2=NCCCCC2)cc1.Cl | 15.6%
16 | Cc1ccccc1NS(=O)(=O)c1cc2c(cc1C)N(C)CCO2 | 13%
17 | c1ccc(Cc2noc(CN3CCN(CCOc4ccccc4)CC3)n2)cc1 | 0.485%
18 | CC(C)c1nnc(NC(=O)c2ccc(N3C(=O)CCC3=O)cc2)s1 | 8.95%
19 | CCCNC(=O)C1CCC(CNS(=O)(=O)c2ccc3c(c2)N(C(C)=O)CCO3)CC1 (stereo not shown) | 12.7%
20 | Cc1c(C)c(C)c2[nH]c(-c3ccc4c(c3)OCO4)nc2c1C | 16.8%
21 | COc1ccc(CNC(=S)NC2CCCC2)cc1 | 9.23%
22 | O=C(O)C1=C[C@H](c2csc3ccccc23)C[C@H](OCc2ccc(CO)cc2)O1 | 13.7%

Row | Compound | hERG current change (%, negative = inhibition) at 1uM
23 | CCCCC(C(=O)OCC)C(N)Cc1ccc(F)cc1.Cl (stereo not shown) | 15.1%
24 | CC(C)CCNC(=O)C1c2ccccc2Oc2ccccc21 | -12.1%
25 | CCc1n[nH]c2c1/C(=N\O)CC(C)(C)C2 | 13.9%
26 | CCn1nc(C)c(/C=N/NC(=O)c2ccc3c(c2)c(C)c(C)n3Cc2ccccc2)c1C | 6.88%
27 | COc1cc(CNc2ccc(CNc3ncn[nH]3)cc2)ccc1OCC(=O)NC(C)(C)C | 9.9%
28 | CC(=O)Cc1nsc(NC(=O)c2cn(-c3ccccc3)nc2-c2ccc(Br)cc2)n1 | 9.97%
29 | CCOc1ccc(N(C(=O)CNC(=O)c2ccco2)C(C(=O)NCC2CCCO2)c2ccccc2)cc1 (stereo not shown) | 15%
30 | CCCCOc1ccccc1NC(=O)C=C(C)C | 7.26%
31 | COC(=O)C1=C(Nc2ccccc2NS(=O)(=O)c2ccc(C(F)(F)F)cc2Cl)CSC1 | 11.4%
32 | COc1cc(C(=S)N2CCOCC2)cc(OC)c1OC(=O)Cc1ccc(F)cc1 | 12.6%
33 | CCOC(=O)C1(CCCc2ccccc2)CCN(Cc2cnn(C)c2)CC1 | -46.4%
34 | Cc1csc(NC(=O)CCNC(=O)c2ccccc2Cl)n1 | 14.8%
35 | O=[N+]([O-])c1ccc2c(c1)nc1n2CCCCC1 | 4.91%
36 | CC(=O)Nc1ccc(-c2ccccc2)s1 | 17.2%
37 | CN1CCC(CN)(N2CCN(c3ccccc3)CC2)CC1 | 11.4%
38 | O=C(NCCc1nnc2ccc(SCC(=O)N3CCCC3)nn12)c1ccc(F)cc1 | 7.7%
39 | COc1cccc(C2=CC(=O)CCC2)c1 | 6.48%
40 | CN(C)/C=C1/C(=O)NC(=O)N(CCNc2ncc(C(F)(F)F)cc2Cl)C1=O | 15.2%
41 | O=C(CCC(=O)N(CC(=O)NC1CCCCC1)Cc1cccs1)Nc1nccs1 | 11%
42 | Cn1cc(-c2ccc(Cl)cc2)cc(C#N)c1=O | 10.2%
43 | CC(C)=CCN1CCN(CC#Cc2ccccc2)CC1CCO (stereo not shown) | 4.36%
44 | Cc1ccc(NC(=O)C(C)OC(=O)Cn2[nH]c(=O)c3ccccc3c2=O)cc1 (stereo not shown) | 14.4%

Row | Compound | hERG current change (%, negative = inhibition) at 1uM
45 | COc1cc(OC)c(OC)cc1CN1CCN(S(=O)(=O)c2ccc(NC(C)=O)cc2)CC1.O=C(O)C(=O)O | 13.6%
46 | O=C(Nc1ccc2c(c1)CCC2)c1cnc(Cl)c(Cl)c1 | 2.47%
47 | CCn1cc(C(=O)O)c(=O)c2cnc(N3CCN(C(=S)Nc4ccccc4C(F)(F)F)CC3)nc21 | 10.5%
48 | Cc1[nH]cnc1CSCCN.Cl | 13%
49 | OC(CN=c1sc2ccccc2n1CC(O)COc1ccccc1)COc1ccccc1 (stereo not shown) | 2.74%
50 | O=[N+]([O-])c1cccc(CN2CCC(Cc3ccccc3)CC2)c1 | -45.6%
51 | CN(Cc1c(C(=O)N/N=C/c2cccc(F)c2)nnn1-c1nonc1N)C1CCCCC1 | 26.7%
52 | O=C(CCNS(=O)(=O)c1ccccc1F)N1CCN(C(c2ccccc2)c2ccccc2)CC1 | 8.42%
53 | CC(=O)Nc1ccc(-c2nnc(SCc3ccc(C)cc3)n2C)cc1 | 10.2%
54 | CCc1cccc(C)c1N=Cc1c(O)c2ccccc2oc1=O | 12.5%
55 | Cc1ccccc1N1CCN(C2CCCN(C(=O)CCn3cnnn3)C2)CC1 (stereo not shown) | 11.9%
56 | CCOc1cc(/C=C2\NC(=O)NC2=O)cc([N+](=O)[O-])c1O | -7.26%
57 | O=S(=O)(c1ccc(NC(=S)NN=C(Cc2ccccc2)Cc2ccccc2)cc1)N1CCOCC1 | 11.4%
58 | Cc1ccnc(NS(=O)(=O)c2ccc(NC(=O)Cc3ccc(Cl)cc3)cc2)n1 | 15.9%
59 | O=C(NC1CCSc2ccccc21)c1cc(S(=O)(=O)N2CCOCC2)ccc1F (stereo not shown) | 8.19%
60 | Cc1cc(NCCCN2CCOCC2)n2nc(C)c(-c3ccc(F)cc3)c2n1 | -0.809%
61 | CCC(C(=O)Nc1cccnc1)n1c(=O)[nH]c2ccccc2c1=O (stereo not shown) | 13.2%
62 | CCN(CC)S(=O)(=O)c1ccc2c(c1)nc(CCC(=O)OCC(=O)Nc1c(F)cccc1F)n2C | -3.23%
63 | COC(=O)c1ccc(S(=O)(=O)NCCSc2nnc3c4ccccc4n(C)c3n2)cc1 | 1.09%
64 | O=C(CN1C(=O)C2CC=CCC2C1=O)Nc1ccc(S(=O)(=O)N2CCOCC2)cc1 (stereo not shown) | 15.6%
65 | CC(=O)c1sc(NC(=O)CCN2C(=O)C3CC=CCC3C2=O)nc1-c1ccccc1 (stereo not shown) | 0.74%
66 | CC(C)NC(=O)C1CCN(C2CCN(Cc3ccc4cccc(F)c4n3)CC2)CC1 | 6.69%

Row | Compound | hERG current change (%, negative = inhibition) at 1uM
67 | COc1cc(NC(=O)CN(c2cc(C)cc(C)c2)S(=O)(=O)c2c(C)noc2C)cc(OC)c1 | 3.95%
68 | O=C(CC1C(=O)NCCN1Cc1cccc(Oc2ccccc2)c1)NCCn1cccn1 (stereo not shown) | -2.88%
69 | COc1ccc(CC(=O)Nc2cccc(C(=O)NN3C(=O)c4ccccc4C3=O)c2C)cc1 | 10.2%
70 | CCCC(=O)N(CCN1CCOCC1)c1nc2c(C)cccc2s1.Cl | 6.75%
71 | COc1cc(O)c(C(CC(=O)N2CCCC(C)C2)c2ccc3c(c2)OCO3)c(OC)c1 (stereo not shown) | 14.5%
72 | COc1cc(/C=N/Nc2ccc(C(F)(F)F)cn2)ccc1O | 16.8%
73 | CCC(NC(=O)Nc1nnc(C(F)(F)F)s1)(C(F)(F)F)C(F)(F)F | 4.85%
74 | C=CCC1C=CCC(CC=C)N1C(=O)c1ccccc1[N+](=O)[O-] (stereo not shown) | 8.25%
75 | COc1ccc2c(c1)oc(=O)c1cc(OC)ccc12 | 15.7%
76 | O=C(COc1ccc(C(=S)N2CCOCC2)cc1)N1CCOCC1 | 11.8%
77 | CC1CCN(C(C(=O)O)c2ccccc2)CC1.Cl (stereo not shown) | 15.1%
78 | CC(C)(C)C1(C)OC(C(=O)NC2CCCCC2)C(C(=O)NC2CCCCC2)O1 (stereo not shown) | -0.895%
79 | O=C(NCc1ccccc1)N1CCC(CO)(Cc2cccc(F)c2)CC1 | 14.3%
80 | O=C(Nc1ccc2c(c1)OCO2)C1CCN(C(=O)CSc2ncnc3ccccc23)CC1 | -5.72%
81 | Cc1cccc(C)c1NC(=O)N1CCN(c2nc3ccccc3s2)CC1 | 9.9%
82 | O=C(NCc1ccc(F)cc1)c1cc(C(=O)C2CC2)c[nH]1 | 4.05%
83 | N/C(=N/[N+](=O)[O-])N1CCN(C(=O)c2ccc(Cl)cc2)CC1 | 5.02%
84 | COc1ccccc1NC(=O)CC1C(=O)NCCN1C(=O)Nc1ccc(Cl)c(Cl)c1 (stereo not shown) | 9.53%
85 | O=C(OCc1c(Cl)nc2sccn12)c1cc2c(s1)CCCC2 | 9.38%
86 | Cc1ccc(C)c(S(=O)(=O)Nc2ccccc2C(=O)Nc2cc(C)on2)c1 | 10%
87 | CCOC(=O)Cc1cc(=O)[nH]c(Nc2nc3ccccc3o2)n1 | 4.8%
88 | CCC(C)NC(=O)c1cn(CCOC)c(=O)c2c1c1ccccc1n2C (stereo not shown) | 21.6%
